Values joined by “and” are separate entries in the source; they are usually repeats but may differ in a detail not shown here. Identical values can stand only once.

The values below come from paper PMC11582101, “Unlocking the potential: unveiling tyrphostins with Michael-reactive cyanoacrylate motif as promising inhibitors of human 5-lipoxygenase” (Pflugers Archiv, 2024).

The target of one experiment is T1, recombinant human 5-LO (r5-LO_WT) (Homo sapiens, UniProt P09917).
T1 sequence (P09917 1-674): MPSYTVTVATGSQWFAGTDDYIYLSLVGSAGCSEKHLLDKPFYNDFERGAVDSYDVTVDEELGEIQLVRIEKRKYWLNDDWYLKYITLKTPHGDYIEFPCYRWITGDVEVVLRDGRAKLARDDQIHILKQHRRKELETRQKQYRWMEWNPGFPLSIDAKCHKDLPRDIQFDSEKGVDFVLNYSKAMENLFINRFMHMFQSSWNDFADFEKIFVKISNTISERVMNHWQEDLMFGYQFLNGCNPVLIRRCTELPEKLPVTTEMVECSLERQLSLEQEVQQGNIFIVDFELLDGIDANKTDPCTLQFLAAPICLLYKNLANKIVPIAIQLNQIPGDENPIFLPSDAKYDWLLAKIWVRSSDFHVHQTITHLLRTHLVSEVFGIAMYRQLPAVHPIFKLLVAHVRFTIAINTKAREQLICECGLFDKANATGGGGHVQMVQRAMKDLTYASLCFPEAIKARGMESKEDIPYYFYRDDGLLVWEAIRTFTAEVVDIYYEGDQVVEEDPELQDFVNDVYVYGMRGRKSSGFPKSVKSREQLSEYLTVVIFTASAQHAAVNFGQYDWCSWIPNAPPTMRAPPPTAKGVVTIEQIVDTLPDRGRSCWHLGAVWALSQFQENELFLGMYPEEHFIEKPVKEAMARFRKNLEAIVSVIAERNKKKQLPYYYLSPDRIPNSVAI
Assay: not given
The following applies: 3 µg r5-LO_WT, 15 min preincubation on ice, 10 µM AA, 2 mM CaCl2; (95% CI), n = 3–6.
For `N#C/C(=C\c1ccc(O)c(O)c1)C(=O)O` [AG30], the “IC50 for inhibition of 5-LO product formation, r5-LO_WT” value was “only marginal 5-LO inhibiting activity”. On the same count and under the same terms, then `N#C/C(=C/c1cc(Cl)cc(Cl)c1)c1cccnc1` [RG14620], with “failed to inhibit r5-LO_WT or only showed marginal inhibitory activity”. On the same count and under the same terms, in the case of `N#CC(C#N)=Cc1ccc(O)cc1` [Tyrphostin 8] it was “no inhibition”.

A further experiment has as its target T1, recombinant human 5-LO (r5-LO_WT). Kind of experiment: biochemical. Particulars: IC50 for inhibition of 5-LO product formation, 3 µg r5-LO_WT, 15 min preincubation on ice, 10 µM AA, 2 mM CaCl2, (95% CI), n = 3–6.
As for `N#C/C(=C\c1ccc(O)c(O)c1)C(N)=O` [(E)-AG99], the IC50 was 1500 nM. Same read-out and setting: in the case of `N#CC(C#N)=Cc1ccc(O)c(O)c1` [AG18] it was ~1000 nM and 1400 nM; in that of `N#CC(C#N)=Cc1cc(O)c(O)c(O)c1` [AG82], ~1000 nM and 930 nM. Same read-out and setting: in the case of `N#CC(C#N)=Cc1ccc([N+](=O)[O-])c(O)c1` [AG126] it was greater than 20000 nM; in that of `N#C/C(=C\c1ccc(O)c(O)c1)C(=O)NCc1ccccc1` [AG490], 280 nM. The same measure, in the same setting: then `N#C/C(=C\c1ccc(O)c(O)c1)C(=O)Nc1ccccc1` [AG494], with 360 nM; and `N#C/C(=C\c1ccc(O)c(O)c1)C(=O)NCCCCc1ccccc1` [AG556], with 64 nM.

For the compound `CC(C)(C)c1cc(/C=C(\C#N)C(N)=S)cc(C(C)(C)C)c1O` [AG879], the half-inhibitory concentration (IC50) was 80 nM and 78 nM. On the same count and under the same terms, then `O=C(/C=C/c1ccc(O)c(O)c1)OCCc1ccccc1` [CAPE, caffeic acid phenethyl ester], with 84 nM; and `CCC[C@H](NC(=O)/C(C#N)=C/c1cccc(Br)n1)c1ccccc1` [Degrasyn], with 110 nM. Still for that read-out and setting: then `N#C/C(=C/c1cc(Cl)cc(Cl)c1)c1cccnc1` [RG14620], with greater than 25000 nM.

Take `CC(C)c1cc(/C=C(\C#N)C(=O)NCCCc2ccccc2)cc(C(C)C)c1O` [SU1498]: the IC50 came to 450 nM. The same measure, in the same setting: in the case of `C[C@H](NC(=O)/C(C#N)=C/c1cccc(Br)n1)c1ccccc1` [WP1066] it was 940 nM.

As a reminder, the IC50 is the concentration at which inhibition is half-maximal.
